Read counts are not given, so values of variants with three or more changes are uncertain.
B1: CPEB3 Ribozyme (parent)
chain: UAACAGGGGGCCACAGCAGAAGCGUUCACGUCGCAGCCCCUGUCAGAUUCUGGUGAAUCUGCGAAUUCUGCUGUAUAUCUC

Variants of: B1
Test: self-cleavage, relative activity (ratio to wild type); higher = more cleavage; in vitro, sequencing
In short: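 Relative activity was defined as the cleaved/total read fraction for a variant divided by the same fraction for the unmutated ribozyme. CPEB3 self-cleaving ribozyme libraries were made by rounds of error-prone PCR, barcoded, and transcribed in vitro with T7 RNA polymerase for 5 hours at 37°C, and cleavage ran through transcription plus a 15 min DNase I step before EDTA. Illumina sequencing of template-switched reverse transcripts gave the reads, and DNA sequencing mapped the barcodes. Averages come from three batches, using variants with at least 5 reads.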
Work on UAACAGGGGGCCCCAGCGGAAGCGUUCACGUCGCAGCCCCUGUCAGAUUCUGGUGAAUCUGCGAAUACUGCCGUAUAUCUC yielded a self-cleavage of 0.13.
In the case of UAACAGGGGGCCCCAGCAGAAGCGUCCACGUCGCAGCACGUGUCAGAUUCUGGUGAAUCUGCGAAUUCUGCUGUAUAUCCC, the self-cleavage is reported as 0.06.
In the case of UAACAGGGGGCCCCAGCAGAAGCGGUCACGUCGCGGGCCCUGUCAGAUUCUGGUGAAUCUGCGUAUUCUGCUGUAUACCUC, the self-cleavage is reported as 0.04.
Variant UAACAGGGGGCCCCAGCAGAAGCGUUCACGUCGCAGCCCCUGUCAGGUUCUGGUGAAUCUGCGAACUCUGCUGUAUAUCUC has a self-cleavage of 0.32.
In the case of UAACAGGGGGCCCCAGCAGAAGCGCUCACGUCGCGGCCCCUGUCGGAUUCUGGCGAAUCUGCGAAUCCUGCUGUAUAUCUC, the self-cleavage is reported as 0.
For UAACAGGGGGCCCCAGCAGAAGCGUUCACGUCGCAGCCCCUGUCGGAUUCUGGUGAAUCUGCGAAUACUGCUGUAUAUCUC, the self-cleavage was 0.55.
With UAACAGGGGGCCCCAGCAGAAGCGUUCACGACGCAGCCCCUAUCAGAUUCUGGUGAGUCUGCGAAUUCAGCUGUAUAUCUC the self-cleavage was 0.09.
In the case of UAACAGGGGGCCCCAGCAGAAGCGUUCACGUCGCAGCCCCAGUCAGAUUCUGAUGAAUCUGCGAAUUCUGCUGUAUAUCUC, the self-cleavage is reported as 0.14.
UAACAGGGGGCUACAGCAGAAGCGUUCACGUCGCAGCCCCUGUCAGAUUCUGGUGAAUCUGCGAAUCCUGCUGUAUGUCUC gave a self-cleavage of 0.45.
Variant UAACAGGGGGCCCCAGCAGAAGCGUUCACGUCGCAGCCCCUGACAGACUCUGGUGAAUCUGCGAAUUCCGCUGUAUAUCUC has a self-cleavage of 0.08.
For UAACAGGGGGCCCCAGCAGAAGCGUACACGUCGCAGCCCCUGUCAGAUUCUGGUGAAUCUGCGAAUUCUGCUGUGUAUCUC, the self-cleavage was 0.31.
In the case of UAACAGGGGGCCCCGGCAGGAGCGUUCACGUCGCGGCCCCAGUCAGAUUCUGGUGAAUCUGCGAAUUCUGCUGUACAUCUC, the self-cleavage is reported as 0.03.
UAACAGGGGGCCCCAGCAGUAGCGUUCACGUCGCAGCCCCCGUCAGAUUCUGGUGAAUCUGCGAAUUCUGCUGUAUAUCUC showed a self-cleavage of 0.13.
With UAACAGGGGGCCCCAGCGGAAGCGUUCACGAUGCAGCCCCUGUCAGAUUCUGGUGAGUCUGCGAAUUCAGCUGUAUAUCUC the self-cleavage was 0.1.
In the case of UAACAGGGGGCCCCGGCAGAAGCGUUCACGUCGCAGCCCCUGUCAGAUUCUGGUGAAUCUGCGAAUUCUGCAGUAUAUCUC, the self-cleavage is reported as 0.22.
Work on UAACAGGGGGCCCCAGCAGAAGCGUUCAAGUUGCAGCCCCUGUCAGAUUCUGGUGAAUCUGCGAAUUCUGCUGUAUUUCUC yielded a self-cleavage of 0.1.
UAACAGGGGGCCCCAGCAGAAGCGAUCACGUCGCUGCCCCUGUCAGAUUCUGGUGAGUCUGCGAAUUCUGCUGUAUAUCUC gave a self-cleavage of 0.18.
Work on UAACAGGGGGCCCCAGCAGAAGCGUUCACGCCGCAGCCCCUGUCAGAUUCUGGUGAAUCCGCGAAUUCUGCUGUAUAUCUC yielded a self-cleavage of 0.17.
For UAACAGGGGGCCCCAGCAGAAGCGUUUACGUCGCAGCCCCUGUCAGAUUCUGGUGAAUCUGCGAAUUCUGCUGUAUAUAUC, the self-cleavage was 0.04.
UAACAGGGGGCUACAGCAGAAGCGUUCACGUCGCAGCCCCUGUCAGAUUCUGGCGAAUCCCCGAAUUCUGCUGCAUAUCUC gave a self-cleavage of 0.48.
UAACAGGGGGCCCCAGCAGAAGCGUUCACGUCGCAGCCCCUGACAGAUCCUGGUGAAUCCGCGAAUUCUGCUGUAUAUCUC showed a self-cleavage of 0.14.
With UAACAGGGGGCCCCAGCAGGAGCGUUCACGCCGCAGCCCCUGUGAGAUUCUGGUGAAUCUGCUAAUUCUGCUGUAUAUCUC the self-cleavage was 0.11.
With UAACAGGGGGCCCCAGCACAAGCGUUCACGUCGCAGCCACUGUCAGAUUCUGGUGAGUCUGCGGAUUCUGCUGUAUAUCUC the self-cleavage was 0.3.
Variant UAACAGGGGGCCCCAGCAGAAGCGUCCACGCCGCAGCCCCUGUCAGAUUCUGGUGAAUCUGCGAAUUCUGCUGUAUAUCUC has a self-cleavage of 0.29.
For UAACAGGGGGCCCCAGCAGAAGCGUUCACGUCGCAGCCCCUGUCAGAUUCUGAUGUAUCUGCGAAUUCUGCUGUAUAUCUC, the self-cleavage was 0.74.
With UAACAGGGGGCCCCAGUAGAAGCGUUCACGUCGCAGCCCCUGUCAGAUUCUGGUGGAUCCGCGAAUUCUGCUGUAUAUCAC the self-cleavage was 0.12.
UAACAGGGGGCUACAGCAGAAGCGUUCACGUCGCAGCCCCUGUCAGAUUCUGGUGAAUCUGCGAAUCCUGCCGCAUAUCCC gave a self-cleavage of 0.65.
With UAACAGGGGGCCCCAGCAGAGGCGUUCACGUCGCAGCCCCAGUCAGAUUCGGGUGAAUCUGCGGAUUCUGCUGUAUAUCUC the self-cleavage was 0.05.
UAACAGGGGGCCCCAGCAGAAGCGCUCACGUCGCAGCCCCUGUCAGAUUCUGGUGAAUCUGCGAAUCCUGCUGUAUAUCCC showed a self-cleavage of 0.1.
For UAACAGGGGGCUACAGCAGAAGCGUUCACGUCGCAGCCCCUGUCAGAUUCUGGUGAAUCCGCGUAUUCUGCUGUAAAUCUC, the self-cleavage was 0.45.
For UAACAGGGGGCCCCAGGAGAAGCGUUCACGUCGCAGCCCCUGUCAGAUUCCGGUGUAUCUGCGUAUUCUGCUGUAUAUCUC, the self-cleavage was 0.
UAACAGGGGGCCCCAGCUGUAGCGUUCACGCCGCAGCCCCUGUCAGAUUGUGGUGAAUCUGCGAAUUCUGCUGUAUAUCUC gave a self-cleavage of 0.14.
With UAACAGGGGGCCCCUGCAGAAGCGUUCACGUCGCGGCCCCUGUCAGAUUCUGGUGAAUCUGCGGAUUCUGCCGUAUUUCUC the self-cleavage was 1.26.
UAACAGGGGGCCCCAGUAGAAGCGCUCACGUCGCAGCCCCUGUCAGAUUCUGGUGAAUUUGCGAAUUAUGCUGUAUAUCCC gave a self-cleavage of 0.14.

— the RNAGym collection of RNA variant scans (doi:10.1093/nar/gkz1192)
